Measurements as given in PubChem BioAssay AID588855 (National Center for Advancing Translational Sciences (NCATS), 2011).
Among all 410,000 compounds or so, about 5,000 (1.2%) were called active. Inconclusive results, whose numbers are uncertain, are shown with a selection of clear calls. The call rests on the fitted dose curve; in most records, active means well fitted inhibition curve with a large enough effect; inconclusive means small, poorly fitted or top-dose-only effect; inactive means no such curve, though single readings can be large or run the other way. Where the call is inconclusive, the potency comes from a doubtful curve fit.

Assay: qHTS for Inhibitors of TGF-b; further: nearly all actives have a fitted effect of over 65% in size
Details: HepG2 CAGA-GFP TGF-b/SMAD3 reporter, GFP fluorescence, 18 h, TGF-beta stimulated, 500 pg/mL final; series mostly up to 46.1 µM
Outline: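 Cell-based qHTS in HEPG2 carrying a CAGA-GFP Smad reporter; compounds added before 500 pg/mL final TGF-beta, 18 h incubation at 37 degrees C, GFP fluorescence quantified per cell by imaging cytometry.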
Potency means the concentration at half of the fitted maximal effect; tags describe the fitted curve by direction and shape.

Row | SMILES | Potency
1 | COc1ccc(OC)c(/C=N/NC(=O)c2csc3ccccc23)c1 | inactive
2 | Cc1csc2c(C#N)c(=O)c3c(n12)CCC3 | inconclusive: 0.501 µM [inhibitor, partial curve, poor fit]
3 | COC(=O)c1ccc(CSC2=NC[C@@H]3[C@@H]4C(=O)N(C)C(=O)[C@@H]4[C@](C)(C(=O)OC)N23)cc1 | inconclusive: 7.08 µM [inhibitor, partial curve, poor fit]
4 | FC(F)(F)c1ccccc1Cc1c(-c2ccccc2)nc2c3ccccc3ccn12 | inconclusive: 5.62 µM [inhibitor, full curve]
5 | COCC(=O)Nc1ccc(N2CCCC2)c(S(=O)(=O)Nc2ccccc2OC)c1 | inactive
6 | Cc1cccc(C(=O)OCC(=O)N2CCc3ccccc3C2)c1O | inconclusive: 15.8 µM [inhibitor, single point]
7 | CCOC(=O)C1(Cc2cccc(F)c2)CCN(Cc2c(C)nn(CC)c2C)CC1 | inactive
8 | CC1(C(=O)Nc2cnc3ccccc3c2)CCN1C(=O)C/C=C/c1ccccc1 (centres undefined) | inactive
9 | O=C(Cc1ccc(NC(=O)C2CCCN(C(=O)C3CC3)C2)cc1)Nc1ccc(C(=O)N2CCOCC2)cc1 (centres undefined) | inconclusive: 3.55 µM [inhibitor, single point]
10 | O=C(Nc1cccc2nsnc12)c1ccc2c(c1)OCO2 | inconclusive: 35.5 µM [inhibitor, single point]
11 | CCOC(=O)c1oc2ccc(S(=O)(=O)n3nc(-c4ccccc4OC)cc3N)cc2c1C | inconclusive: 3.98 µM [inhibitor, full curve]
12 | Cc1ccc(S(=O)(=O)N(C)C)cc1NC(=O)COC(=O)c1c(-c2ccccc2)noc1C | inactive
13 | O=C(Nc1nc(-c2cccs2)cs1)c1ccc([N+](=O)[O-])o1 | inconclusive: 17.8 µM [inhibitor, partial curve, poor fit]
14 | C[C@H](NC(=O)c1cc2c([nH]c3ccccc32)c(-c2ccccc2)n1)C(=O)O | inactive
15 | Cc1ccc(C(C(=O)NCCc2ccccc2)N(C(=O)c2csnn2)C2CC2)cc1 (centres undefined) | inconclusive: 2.82 µM [inhibitor, single point]
16 | c1ccc(CNc2nc(N3CCN(Cc4ccccc4)CC3)nc3ccccc23)cc1 | inconclusive: 20 µM [inhibitor, partial curve, poor fit]
17 | CCCN(Cc1cccs1)C(=O)Nc1cc(Cl)c(OC)cc1OC | inactive
18 | O=C(CN1C(=O)NC2(CCCC2)C1=O)Nc1nc2ccccc2[nH]1 | inconclusive: 35.5 µM [inhibitor, single point]
19 | O=C(/C=C/c1ccc(Cl)cc1Cl)Nc1cccc(S(=O)(=O)NC2=NCCC2)c1 | inconclusive: 35.5 µM [inhibitor, single point]
